Results on 66 compounds are retold here after article PMC6919601, “Identification of Plasmodium dipeptidyl aminopeptidase allosteric inhibitors by high throughput screening” (PLoS ONE, 2019).

The whole screen tested about 110,000 compounds, of which about 230 (0.21%) showed an effect of 50% or more. This is one part of the list.
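Also: 30 min substrate incubation versus DMSO and 10 µM JCP410 controls.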

For the assay, the target named is DPAP1 (Plasmodium falciparum, UniProt Q8IIJ9). Kind of assay: primary screen, percent inhibition; read by cleavage of a fluorogenic dipeptide substrate; higher = more effect of the substance. More on the design: species or system P. falciparum D10 trophozoite lysates; single well.
Chain of DPAP1 (Q8IIJ9 whole entry, looked up): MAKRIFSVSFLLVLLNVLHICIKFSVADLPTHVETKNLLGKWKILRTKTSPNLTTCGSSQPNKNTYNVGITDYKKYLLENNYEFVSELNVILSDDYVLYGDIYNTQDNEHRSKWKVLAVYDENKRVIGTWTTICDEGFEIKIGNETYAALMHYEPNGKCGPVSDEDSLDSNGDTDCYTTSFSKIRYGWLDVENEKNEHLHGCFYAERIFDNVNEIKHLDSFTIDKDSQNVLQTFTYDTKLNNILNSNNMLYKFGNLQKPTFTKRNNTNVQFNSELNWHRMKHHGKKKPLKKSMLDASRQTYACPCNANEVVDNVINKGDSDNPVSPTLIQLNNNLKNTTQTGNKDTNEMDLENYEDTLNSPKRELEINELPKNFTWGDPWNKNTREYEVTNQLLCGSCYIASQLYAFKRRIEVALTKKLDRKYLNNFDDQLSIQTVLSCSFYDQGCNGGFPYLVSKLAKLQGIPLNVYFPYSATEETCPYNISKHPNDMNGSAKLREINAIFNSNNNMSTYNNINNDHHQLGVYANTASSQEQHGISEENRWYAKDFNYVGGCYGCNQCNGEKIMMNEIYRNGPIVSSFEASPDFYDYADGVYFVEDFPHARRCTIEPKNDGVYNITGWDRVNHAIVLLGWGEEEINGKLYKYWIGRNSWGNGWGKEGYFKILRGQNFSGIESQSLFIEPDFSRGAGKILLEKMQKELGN
Consider `O=C(Nc1ccc(F)cc1F)C1CC(=O)N(c2ccc(Br)cc2)C1` (stereo not drawn), for which the “% Inhibition @ 10 uM” value is listed as 9.01%.

With `COc1ccc(-c2c(Cc3ccccc3)nn3c(O)cc(-c4ccccc4)nc23)cc1`, the “% Inhibition @ 10 uM” value came to 3.42%.

`COc1ccc(/C=C\C(=O)NCC(=O)O)cc1`: the “% Inhibition @ 10 uM” value is -2.72%.

Consider `CC(C)(C)c1cc(-c2nc3ccccc3[nH]2)[nH]n1`, for which the “% Inhibition @ 10 uM” value was 4.6%.

With `CC(=O)NS(=O)(=O)c1ccc(N2C(=O)c3ccccc3C2=O)cc1`, the “% Inhibition @ 10 uM” value stood at 0.331%.

On to `Cc1ccc2c(c1)/C(=C1/SC(Nc3ccc(Cl)cc3)=NC1=O)C(=O)N2C`, for which the “% Inhibition @ 10 uM” value was found to be 5.4%.

For the compound `Cc1nc(C(Cl)(Cl)Cl)nc(N)c1C(=O)c1ccccc1`, the “% Inhibition @ 10 uM” value is listed as -1.82%.

On to `CCOC(=O)N1CCC(NCc2c(C(=O)O)n(Cc3ccc(C)cc3)c3ccccc23)CC1`, for which the “% Inhibition @ 10 uM” value was found to be 6.59%.

On to `C=CCc1ccc(OCCCCN2CCC(C)CC2)c(OC)c1`, for which the “% Inhibition @ 10 uM” value is listed as -6.78%.

As to `Cc1ccc(C2=NN=C(NC(=O)CSc3nnnn3-c3ccccc3)SC2)cc1`, the “% Inhibition @ 10 uM” value is reported as 4.3%.

As to `Cc1ccc(-n2nc3c(c2NC(=O)c2ccc(Cl)cc2Cl)CS(=O)(=O)C3)cc1`, the “% Inhibition @ 10 uM” value was found to be 10.3%.

As for `Cc1nonc1NC(=O)N1CCCCC1`, the “% Inhibition @ 10 uM” value came to 1.25%.

Take `COc1ccc(-c2nc(CS(=O)(=O)CC(=O)NCc3ccc(Cl)cc3)c(C)o2)cc1`: the “% Inhibition @ 10 uM” value is on record as -5.58%.

`COc1ccccc1CCNC(=O)Cc1c(C)c2cc3c(C)coc3c(C)c2oc1=O`: the “% Inhibition @ 10 uM” value stood at 2.54%.

For `COc1ccccc1NC(=O)C1CC(=O)N(C)/C(=N/c2ccc(Cl)cc2)S1` (stereo not drawn), the “% Inhibition @ 10 uM” value is on record as -3.25%.

Consider `Cc1cc(C)nc(SCC(=O)c2ccc(F)cc2)n1`, for which the “% Inhibition @ 10 uM” value is 1.4%.

On to `Nc1n[nH]c(CCCO)n1`, for which the “% Inhibition @ 10 uM” value is listed as 0.221%.

`Cc1cccc(Cn2nc(C)c(NC(=O)c3ccco3)c2C)c1`: the “% Inhibition @ 10 uM” value is -0.222%.

Take `CCCSCCCn1cnc2c3cc(C)ccc3nc-2c1O`: the “% Inhibition @ 10 uM” value turned out to be 10.6%.

As to `Cn1c(SCC(=O)NCc2cccs2)nnc1-c1ccco1`, the “% Inhibition @ 10 uM” value was -0.403%.

Take `CCOc1cc(C(=O)NC2CC2)cc(OCC)c1OCC`: the “% Inhibition @ 10 uM” value amounted to 6.98%.

On to `CCOC(=O)c1c(-c2ccccc2)csc1NC(=O)c1cc(-c2ccc(O)cc2)on1`, for which the “% Inhibition @ 10 uM” value is -2.65%.

In the case of `C=CCSc1nc2c(c(=O)n1-c1ccc(C)cc1)C1(CCCC1)Cc1ccccc1-2`, the “% Inhibition @ 10 uM” value was -5.23%.

`COc1ccc(CN2CCN(S(=O)(=O)c3ccc4ccccc4c3)CC2)cc1Br`: the “% Inhibition @ 10 uM” value was 0.146%.

Take `CCOC(=O)C1CCCN(Cc2ccccc2C(F)(F)F)C1` (stereo not drawn): the “% Inhibition @ 10 uM” value is -1.77%.

Turning to `O=C1CCCC2=C1C(c1ccco1)Nc1ccc3ccccc3c12` (stereo not drawn), the “% Inhibition @ 10 uM” value came to 3.05%.

In the case of `CCCN1CCN(C(=O)Cn2c(C)cc3ccccc3c2=O)CC1`, the “% Inhibition @ 10 uM” value worked out at 1.91%.

On to `CCOC(=O)C1=C(CNCCc2ccc(Cl)cc2)NC(=O)NC1c1ccc2c(c1)OCO2` (stereo not drawn), for which the “% Inhibition @ 10 uM” value is reported as -2.19%.

In the case of `Cc1ccc(C(C)(C)CCN2CCCN(C)CC2)o1`, the “% Inhibition @ 10 uM” value is listed as -2.97%.

As to `Brc1ccc(C2=NN=C(c3ccccc3)c3ccccc3N2)cc1`, the “% Inhibition @ 10 uM” value is -2.35%.

For `Cc1ccc(C(=O)Nc2ccccn2)cc1C`, the “% Inhibition @ 10 uM” value is reported as -1.82%.

In the case of `Cc1sc(NC(=O)CN2C(=O)c3ccccc3C2=O)nc1-c1ccccc1`, the “% Inhibition @ 10 uM” value was 0.146%.

Consider `Cc1[nH]cnc1CN1CCCCC1CO` (stereo not drawn), for which the “% Inhibition @ 10 uM” value is -7.17%.

In the case of `COc1c(C(=O)Nc2ccc(C(C)=O)cc2)ccc2ccccc12`, the “% Inhibition @ 10 uM” value is given as -2.58%.

As to `O=C(NCc1noc2ccccc12)N1CCC(c2ccccc2)C1` (stereo not drawn), the “% Inhibition @ 10 uM” value was found to be 3.54%.

With `O=C(NCCO)C(C(=O)NCCO)C1CCS(=O)(=O)C1` (stereo not drawn), the “% Inhibition @ 10 uM” value is listed as -5.33%.

With `CCOC(=O)c1ccc(NC(=O)c2ccc(Cl)cc2)cc1`, the “% Inhibition @ 10 uM” value was -0.274%.

On to `COc1ccc2c(c1)CCc1c(C(=O)Nc3cnn(Cc4ccc(F)cc4)c3)noc1-2`, for which the “% Inhibition @ 10 uM” value is -5.09%.

As for `O=S1(=O)CC(O)C(N2CCOCC2)C1` (stereo not drawn), the “% Inhibition @ 10 uM” value is on record as -9.6%.

For the compound `Cc1cccc(C(=O)Nc2ccccc2O)c1`, the “% Inhibition @ 10 uM” value is reported as -5.32%.

For the compound `CCN(CC)CCCNC(=O)c1cc(-c2ccc(F)cc2)[nH]c1C`, the “% Inhibition @ 10 uM” value was determined as 1.39%.

Consider `SC1=NC(c2ccc(Cl)cc2)c2ccccc2C1` (stereo not drawn), for which the “% Inhibition @ 10 uM” value is listed as -3.14%.

For `O=C(NC1CCCCCC1)c1ccccn1`, the “% Inhibition @ 10 uM” value turned out to be 2.62%.

`CCOC(=O)C1CCCN(Cc2cccc(Br)c2)C1` (stereo not drawn): the “% Inhibition @ 10 uM” value is -1.92%.

`Cc1c(C)n(C)c2ccc(C(=O)NC3CCN(Cc4ccccc4)CC3)cc12`: the “% Inhibition @ 10 uM” value is listed as -3.95%.

On to `C/C(=N\C1CCCCC1)c1sc2ccccc2c1O`, for which the “% Inhibition @ 10 uM” value is 18.5%.

With `CCOc1ccc(C2C(C(=O)OC)=CN(Cc3ccc(F)cc3)C=C2C(=O)OC)cc1OC`, the “% Inhibition @ 10 uM” value worked out at 0.219%.

As to `O=C(NC(=S)Nc1ccc(N2CCOCC2)cc1)c1ccccc1`, the “% Inhibition @ 10 uM” value came out at 3.05%.

As to `Cc1ccc(-c2c(C(=O)N3CCN(C)CC3)oc(=O)c3ccccc23)cc1`, the “% Inhibition @ 10 uM” value is on record as 1.9%.

For the compound `CCC(CC)CC(NC(=O)c1ccc(C(C)(C)C)cc1)C(=O)N[C@@H](CC)C(=O)c1nc2ccccc2o1` (stereo partly drawn), the “% Inhibition @ 10 uM” value was -6.46%.

As for `NC(=O)CCCn1c(-c2nonc2N)nc2ccccc21`, the “% Inhibition @ 10 uM” value is reported as -7.14%.

Take `CCOc1ccc(C(=O)c2cc3ccc(O)cc3oc2=O)cc1`: the “% Inhibition @ 10 uM” value is on record as -4.97%.

For the compound `N#CC1=C(SCc2ccccc2)SC(c2ccc(C(=O)O)cc2)NC1=O` (stereo not drawn), the “% Inhibition @ 10 uM” value is recorded as 0.0289%.

With `COc1ccccc1/C=C1\SC(=O)N(CCC(=O)Nc2ccccc2)C1=O`, the “% Inhibition @ 10 uM” value turned out to be 2.69%.

With `Cc1oc(-c2ccc(Cl)cc2)nc1CSc1nc2ncccc2o1`, the “% Inhibition @ 10 uM” value amounted to 2.14%.

For `CC(C)Cn1cc(NC(=O)Nc2nc3ccccc3s2)c2ccccc2c1=O`, the “% Inhibition @ 10 uM” value worked out at 2.09%.

In the case of `O=C(C1=C(O)C(=O)N(CCCNCCO)C1c1ccccc1)c1ccccc1` (stereo not drawn), the “% Inhibition @ 10 uM” value is -0.92%.

For `CCOc1cc(Br)c(C(C)NC(=O)c2cccnc2)cc1OCC` (stereo not drawn), the “% Inhibition @ 10 uM” value was determined as 2.17%.

As for `C=CCN1C(=O)S/C(=C/c2ccc(OC)c(OCC)c2)C1=O`, the “% Inhibition @ 10 uM” value is recorded as 2.6%.

Consider `COc1cc(CNCc2cccnc2)ccc1OCc1ccc(F)cc1`, for which the “% Inhibition @ 10 uM” value is reported as -4.12%.

In the case of `Oc1ccc2ccccc2c1C(c1ccc(Br)cc1)N1CCCCC1` (stereo not drawn), the “% Inhibition @ 10 uM” value is given as 3.32%.

Turning to `Cc1c(CN2CCN(CCO)CC2)c(=O)n(-c2ccccc2)n1C`, the “% Inhibition @ 10 uM” value was -1.5%.

With `CCNC(=O)c1c(NC(=O)C(C)Oc2ccc(F)cc2)sc2c1CCCC2` (stereo not drawn), the “% Inhibition @ 10 uM” value is on record as -9.77%.

As for `CC1=C/C(=C/c2ccco2)C(=O)O1`, the “% Inhibition @ 10 uM” value is on record as 16.1%.

Take `CC1CCN(Cc2nc3c(c(=O)n(C)c(=O)n3C)n2Cc2ccccc2Cl)CC1`: the “% Inhibition @ 10 uM” value is -2.29%.

On to `Cc1ccc(/C=C(/C#N)c2nc(-c3cc4c(ccc5ccccc54)oc3=O)cs2)o1`, for which the “% Inhibition @ 10 uM” value is listed as 5.94%.
